Source: paper PMC4336329 (PLoS ONE, 2015)
Hit rate of the full screen: of about 310,000 compounds, about 14,000 (4.5%) showed an effect of 50% or more. The effect is printed as a negative number. The list shows a part of the results.

target: human ether-à-go-go-related gene (hERG) potassium channel (human, UniProt Q12809); assay: primary screen, population patch clamp on CHO cells stably expressing hERG
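Also: peak tail current of the secondary pulse compared with the same well before compound.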

human ether-à-go-go-related gene (hERG) potassium channel, sequence (Q12809 whole entry, looked up): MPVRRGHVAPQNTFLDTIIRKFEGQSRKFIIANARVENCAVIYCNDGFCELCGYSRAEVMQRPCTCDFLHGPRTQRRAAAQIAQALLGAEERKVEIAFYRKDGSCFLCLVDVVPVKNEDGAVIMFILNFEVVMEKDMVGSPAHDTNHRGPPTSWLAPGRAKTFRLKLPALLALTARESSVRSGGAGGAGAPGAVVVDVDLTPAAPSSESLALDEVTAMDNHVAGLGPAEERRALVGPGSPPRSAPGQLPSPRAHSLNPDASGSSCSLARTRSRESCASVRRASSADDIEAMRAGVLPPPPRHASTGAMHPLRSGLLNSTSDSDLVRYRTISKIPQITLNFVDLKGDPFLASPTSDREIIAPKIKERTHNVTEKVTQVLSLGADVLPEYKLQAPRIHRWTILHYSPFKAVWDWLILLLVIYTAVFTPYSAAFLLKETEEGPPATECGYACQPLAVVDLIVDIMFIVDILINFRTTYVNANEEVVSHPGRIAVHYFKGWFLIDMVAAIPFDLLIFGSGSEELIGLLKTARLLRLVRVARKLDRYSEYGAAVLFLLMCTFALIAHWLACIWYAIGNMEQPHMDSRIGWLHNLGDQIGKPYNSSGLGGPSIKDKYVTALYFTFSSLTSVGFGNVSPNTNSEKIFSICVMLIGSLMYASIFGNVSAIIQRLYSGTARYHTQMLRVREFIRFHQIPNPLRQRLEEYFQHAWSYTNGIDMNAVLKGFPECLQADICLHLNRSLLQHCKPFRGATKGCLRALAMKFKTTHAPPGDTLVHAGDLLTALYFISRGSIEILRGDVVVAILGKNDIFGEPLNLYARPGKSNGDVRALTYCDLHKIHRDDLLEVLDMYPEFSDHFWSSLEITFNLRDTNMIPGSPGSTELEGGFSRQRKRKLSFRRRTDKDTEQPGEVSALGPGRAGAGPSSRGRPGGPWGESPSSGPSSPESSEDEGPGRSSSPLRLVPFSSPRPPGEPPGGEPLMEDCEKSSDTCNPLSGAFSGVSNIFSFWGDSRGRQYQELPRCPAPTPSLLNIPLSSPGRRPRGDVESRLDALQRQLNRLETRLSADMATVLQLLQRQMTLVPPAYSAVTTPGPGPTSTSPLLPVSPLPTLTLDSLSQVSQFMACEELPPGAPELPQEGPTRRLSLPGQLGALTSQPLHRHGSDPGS

SMILES | hERG current change (%, negative = inhibition) at 10uM [%]
CN1CCN(S(=O)(=O)c2ccc(NN)nc2)CC1 | -17
Cc1ccc(S(=O)(=O)N/N=C(\c2ccccc2)c2cccnc2)cc1 | -1.87
Oc1ccc(-c2cnc(-c3ccc(O)cc3)nc2)cc1 | 9.71
O=C(Nc1cccnc1)c1cc(-c2cc(Cl)ccc2O)n[nH]1 | -1.89
CN(CCOC(=O)c1cccc(Br)c1)C(C)(C)C.Cl | -35.9
Cc1ccccc1S(=O)(=O)Oc1ccc2ccc(O)cc2c1 | 8.84
CC(C(=O)NCCCn1ccnc1)(c1ccccc1)c1ccccc1.Cl | -73.1
O=C1N/C(=N\N=C\c2cccnc2)SC1Cc1ccc(SC(F)F)cc1 (stereo not shown) | -0.761
C=CCN1CCN(C(c2ccc(Cl)cc2)c2nnnn2CCc2ccc(OC)c(OC)c2)CC1.Cl (stereo not shown) | -48.1
c1ccc(-c2nc3nonc3nc2-c2ccccc2)cc1 | -15.6
CCOC(=O)N1CCN(C(=O)c2c(Cl)cnn2C)CC1 | 3.04
CCOc1ccc(NC(=O)Nc2cnccn2)cc1 | 4.33
CCOc1ccc(NC(=O)COC(=O)CCN2C(=O)C3CC=CCC3C2=O)cc1OCC (stereo not shown) | -7.18
CN1CCN(C(CNC(=O)c2ccc(Br)o2)c2ccc(F)cc2)CC1 (stereo not shown) | -17.5
CCCCN(NC(C)=O)c1nc(Cl)nc(NC(C)C)n1 | -6.31
CC(=O)c1cccc(NC(=O)NCc2ccc3c(c2)OCO3)c1 | 0.0636
O=C(Nc1ccccc1-c1nnn(CC(=O)N2CCN(c3ccccc3)CC2)n1)c1cccs1 | 6.09
NC(=S)NC(=O)c1ccccc1 | 23.2
CCN(CCCNC(=O)CCCn1c(=O)[nH]c2ccccc2c1=O)c1cccc(C)c1 | -0.748
CCOC(=O)c1sc(NC(=O)CSc2nncs2)c(C(=O)OCC)c1C | -1.04
COc1cc([N+](=O)[O-])ccc1NC(=O)CC(C)C | -11.5
Cc1ccccc1OCCn1cc(C=O)c2ccccc21 | 12.4
Cc1cccc2c1NC(=O)C21N2CCCC2C(C(=O)c2ccc3ccccc3c2)C12C(=O)Nc1ccccc12 (stereo not shown) | 0.696

SMILES | hERG current change (%, negative = inhibition) at 10uM [%]
Cc1ccc(NC(=O)C2CC(=O)N(c3ccc4c5c(cccc35)CC4)C2)cc1 (stereo not shown) | 4.76
O=C1NC(=O)/C(=C/c2ccc(-c3cc(C(=O)O)ccc3Cl)o2)S1 | 17.9
O=C(NCC1CCCO1)c1ccc(NC(=O)C2CCCCC2C(=O)O)cc1 (stereo not shown) | 13.7
NS(=O)(=O)c1ccc(NC(=O)CSc2ccccn2)cc1 | 1.46
COc1ccc(C(NC(=O)CC(C)C)c2c(O)ccc3ccccc23)cc1 (stereo not shown) | -3.53
CCOC(=O)c1oc2ccccc2c1COC(=O)CNC(=O)c1ccco1 | -16
COC(=O)/C(C#N)=C/c1c(N2CCN(c3cccc(Cl)c3)CC2)nc2c(C)cccn2c1=O | -1.84
Cc1ccc(N2CC(C(=O)Nc3nnc(SCCC4OCCO4)s3)CC2=O)cc1C (stereo not shown) | 22.2
COc1ccccc1NC(=O)CN(Cc1ccco1)C(=O)c1cncc(Br)c1 | -22.4
CCCn1c(-c2ccc(OC)cc2)nc2ccccc21 | -16.1
CCCCSc1nc(N)c(NC(=O)c2ccco2)c(=O)[nH]1 | 14.2
CSc1nc(O)c(C(c2ccc(OC(C)C)cc2)c2c(O)nc(SC)[nH]c2=O)c(=O)[nH]1 | 16.9
Cc1cn(C2OC(CC(=O)Oc3ccccc3)C(O)C2O)c(=O)[nH]c1=O (stereo not shown) | 8.48
Cc1c(CCC(=O)NC2CC2)c(=O)oc2c(C)c(O)ccc12 | 18.3
COc1c(O)c(=O)n2c3ccccc3c3ccnc1c32 | 7.51
CCOc1cc(/C=N/n2c(C)nc3sc(C)c(C)c3c2=O)ccc1O | 13.2
O=C(O)c1ccccc1/C=N/NC(=O)C1CCCCC1 | -1.66
CC(C)CCNC(=O)C1CCCN(S(=O)(=O)c2ccc(-n3cnnn3)cc2)C1 (stereo not shown) | 22.5
Cc1ccc(C2=NC(C)(C)N3C2C3c2ccc([N+](=O)[O-])cc2)cc1 (stereo not shown) | -30.5
Cc1cccc(OCC(=O)N(Cc2ccco2)c2c(N)n(Cc3ccccc3)c(=O)[nH]c2=O)c1 | -14.2
COc1ccccc1N1CCN(C(=O)C2CC=CCC2C(=O)O)CC1 (stereo not shown) | -13.1
Cc1cc(C)c(NC(=O)CS(=O)CC(=O)N2CCN(c3ccccc3)CC2)c(C)c1 (stereo not shown) | -12.1
CCOc1ccc(-c2c(C(=O)N/N=C/c3ccc(O)cc3)nnn2-c2nonc2N)cc1 | 17.5

SMILES | hERG current change (%, negative = inhibition) at 10uM [%]
O=C(O)c1cccnc1C(=O)N1CCc2c([nH]c3ccccc23)C1C(F)(F)F (stereo not shown) | 10.1
Cc1[nH]c2ccccc2c1C(c1ccccn1)N1CCCC1 (stereo not shown) | -29.1
CCOC(=O)C1CCN(C(=O)c2cc3cc(C)ccc3[nH]2)CC1 | -27.3
CCc1nonc1NC(=O)c1oc2cc(C)c(Cl)cc2c1C | 16.3
CCOC(=O)Cn1c(=N)n(CCOc2cccc(C)c2)c2ccccc21.Cl | -62.2
Nc1nc(N2CCN(c3cccc(Cl)c3)CC2)n[nH]1 | 5.88
NC(=O)c1cc(S(=O)(=O)NCCc2ccc(S(N)(=O)=O)cc2)cs1 | 9.13
CCSC1=NCCN1S(=O)(=O)c1ccc2ccccc2c1 | -11.8
CCOc1cc(NC(=S)NCC2CCCO2)c(OCC)cc1NC(=O)c1ccc(C)cc1 (stereo not shown) | -1.6
COc1ccc(OC)c(COC(=O)c2cc([N+](=O)[O-])ccc2N2CCOCC2)c1 | -18
COc1ccc(Cl)cc1NC(=S)NNC(=O)c1cccs1 | 20
CC1CCN(C(=O)Cn2cc(C(=O)c3ccco3)c3ccccc32)CC1 | 9.74
O=C(Nc1ccccc1)c1ccc(NCC2CCCO2)c([N+](=O)[O-])c1 (stereo not shown) | -2.42
CCCN(CCC)CCCOC(=O)c1ccc(Cl)cc1Cl.Cl | -70.1
COc1cccc2sc(N3CCN(C(=O)c4cccs4)CC3)nc12 | -14.3
CCCc1nc2n[nH]c(N)c2c2c1CCC2 | -8.87
Clc1ccc(SCCCN2CCCCC2)cc1.O=C(O)C(=O)O | -76
Cc1cccc(-n2c(SCC(N)=O)nnc2-c2ccccn2)c1C | 1.28
CC#CCCc1nc2ccccc2c(=O)n1N | 15.9
Cc1nn(C)cc1CN1CCCC(C(=O)c2ccc(-c3ccccc3)c(F)c2)C1 (stereo not shown) | -15.3
CCOc1ccc(N2CSC(=S)N(c3ccc(OCC)cc3)C2)cc1 | 2.45
CCOc1ccc(NC(=O)CC2C(=O)N(C)C(=S)N2CCCc2ccccc2)cc1 (stereo not shown) | -12
CNc1cccccc1=S | 5.49

SMILES | hERG current change (%, negative = inhibition) at 10uM [%]
CCc1nc2cc([N+](=O)[O-])c([N+](=O)[O-])cc2[nH]1 | -14.5
CC(C(=O)Nc1ccccc1C(=O)N1CCCC1)n1nnc2ccccc21 (stereo not shown) | -0.39
CN1CCNC(=O)C1CC(=O)NCCc1ccccc1F (stereo not shown) | 13.4
CC1CC(C)CN(CC(=O)NNC(=O)COc2ccc(Cl)cc2)C1 (stereo not shown) | -25
NC(=O)c1ccccc1N/C=C/C(=O)c1ccc(Cl)cc1 | 11.2
O=C(CC1C(=O)NCCN1CC(c1ccccc1)c1ccccc1)NCC1CCOCC1 (stereo not shown) | 6.24
COc1ccc(OCCC(=O)Nc2ccc(S(N)(=O)=O)cc2)cc1 | 5.19
CCOC(=O)N1CCN(C(=O)Cc2ccc(Cl)cc2)CC1 | -0.647
COC(=O)C(NC(=O)Nc1ccccc1OC)C(C)C (stereo not shown) | 15.9
Cc1ccc(NCc2ccccc2O)cc1C | 13.1
O=S(=O)(NCC1CCCO1)c1ccc(S(=O)(=O)N(Cc2ccc(F)cc2)Cc2ccccn2)cc1 (stereo not shown) | -3.76
N#CCC(=O)N/N=C/c1ccc(OCc2ccccc2)cc1 | 11.3
O=C(Nc1ccc(F)cc1)C1CCC(CNc2c(N3CCCCC3)c(=O)c2=O)CC1 (stereo not shown) | 6.72
CCOc1cc(N2CCOCC2)c(OCC)cc1NC(=O)COC(=O)/C=C/c1ccc(OC(F)F)cc1 | -0.839
CCOCCSc1nc2c(c(=O)[nH]c(=O)n2C)n1CCCc1ccccc1 | -26.2
CCOC(=O)c1ccc(CN(Cc2ccc(C)cc2)S(=O)(=O)c2cccc([N+](=O)[O-])c2)cc1 | 2.59
Oc1ccc(C=Nc2ccccc2-c2nc3ccccc3[nH]2)c(O)c1 | -10
Cc1cc(C)nc(N/N=C/c2ccco2)n1 | 6.04
O=C1CCCN1c1ccc(S(=O)(=O)NCCc2ccc(Cl)cc2)cc1 | -13.6
COC(=O)CN1C(=S)N(C)C(=O)C1CC(=O)Nc1ccccc1 (stereo not shown) | -2
Nc1ccncc1 | 5
COc1ccc(CNC(=O)CN(Cc2ccccc2F)C(=O)c2csnn2)cc1 | -32.7
